Results: publication PMC6794377
Where a chain is given by its changes, count along the chain named. No constants are given. Whether binding was seen depends on the method and setting. Binding seen in cells or lysates may run through a third protein. Some entries that bind do so weakly or less than the wild type. Tags and fused reporters may be left off the sequences shown.

B1: native p43 (AIMP1), endogenous in human cells (protein, UniProt Q12904-2 1-336)
chain: MLPAVAVSEPVVLRFMIFCRLLAKMANNDAVLKRLEQKGAEADQIIEYLKQQVSLLKEKAILQATLREEKKLRVENAKLKKEIEELKQELIQAEIQNGVKQIPFPSGTPLHANSMVSENVIQSTAVTTVSSGTKEQIKGGTGDEKKAKEKIEKKGEKKEKKQQSIAGSADSKPIDVSRLDLRIGCIITARKHPDADSLYVEEVDVGEIAPRTVVSGLVNHVPLEQMQNRMVILLCNLKPAKMRGVLSQAMVMCASSPEKIEILAPPNGSVPGDRITFDAFPGEPDKELNPKKKIWEQIQPDLHTNDECVATYKGVPFEVKGKGVCRAQTMSNSGIK
B2: ArgRS, endogenous in human cells (enzyme, UniProt P54136 1-660)
chain: MDVLVSECSARLLQQEEEIKSLTAEIDRLKNCGCLGASPNLEQLQEENLKLKYRLNILRKSLQAERNKPTKNMINIISRLQEVFGHAIKAAYPDLENPPLLVTPSQQAKFGDYQCNSAMGISQMLKTKEQKVNPREIAENITKHLPDNECIEKVEIAGPGFINVHLRKDFVSEQLTSLLVNGVQLPALGENKKVIVDFSSPNIAKEMHVGHLRSTIIGESISRLFEFAGYDVLRLNHVGDWGTQFGMLIAHLQDKFPDYLTVSPPIGDLQVFYKESKKRFDTEEEFKKRAYQCVVLLQGKNPDITKAWKLICDVSRQELNKIYDALDVSLIERGESFYQDRMNDIVKEFEDRGFVQVDDGRKIVFVPGCSIPLTIVKSDGGYTYDTSDLAAIKQRLFEEKADMIIYVVDNGQSVHFQTIFAAAQMIGWYDPKVTRVFHAGFGVVLGEDKKKFKTRSGETVRLMDLLGEGLKRSMDKLKEKERDKVLTAEELNAAQTSVAYGCIKYADLSHNRLNDYIFSFDKMLDDRGNTAAYLLYAFTRIRSIARLANIDEEMLQKAARETKILLDHEKEWKLGRCILRFPEILQKILDDLFLHTLCDYIYELATAFTEFYDSCYCVEKDRQTGKILKVNMWRMLLCEAVAAVMAKGFDILGIKPVQRM
B3: native hThrRS, endogenous in HEK293T (enzyme, UniProt P26639 1-723)
chain: MFEEKASSPSGKMGGEEKPIGAGEEKQKEGGKKKNKEGSGDGGRAELNPWPEYIYTRLEMYNILKAEHDSILAEKAEKDSKPIKVTLPDGKQVDAESWKTTPYQIACGISQGLADNTVIAKVNNVVWDLDRPLEEDCTLELLKFEDEEAQAVYWHSSAHIMGEAMERVYGGCLCYGPPIENGFYYDMYLEEGGVSSNDFSSLEALCKKIIKEKQAFERLEVKKETLLAMFKYNKFKCRILNEKVNTPTTTVYRCGPLIDLCRGPHVRHTGKIKALKIHKNSSTYWEGKADMETLQRIYGISFPDPKMLKEWEKFQEEAKNRDHRKIGRDQELYFFHELSPGSCFFLPKGAYIYNALIEFIRSEYRKRGFQEVVTPNIFNSRLWMTSGHWQHYSENMFSFEVEKELFALKPMNCPGHCLMFDHRPRSWRELPLRLADFGVLHRNELSGALTGLTRVRRFQQDDAHIFCAMEQIEDEIKGCLDFLRTVYSVFGFSFKLNLSTRPEKFLGDIEVWDQAEKQLENSLNEFGEKWELNSGDGAFYGPKIDIQIKDAIGRYHQCATIQLDFQLPIRFNLTYVSHDGDDKKRPVIVHRAILGSVERMIAILTENYGGKWPFWLSPRQVMVVPVGPTCDEYAQKVRQQFHDAKFMADIDLDPGCTLNKKIRNAQLAQYNFILVVGEKEKISGTVNIRTRDNKVHGERTISETIERLQQLKEFRSKQAEEEF

Each binder was assayed against T1, hThrRS-L-T449D with a C-terminal FLAG tag (human) (UniProt A2RTX5) (assay: co-IP; FLAG-tagged hThrRS-L or mutant overexpressed in HEK293T; IP with anti-FLAG, Dynabeads protein G, 4°C; endogenous partners detected by western blotting).
T1 sequence: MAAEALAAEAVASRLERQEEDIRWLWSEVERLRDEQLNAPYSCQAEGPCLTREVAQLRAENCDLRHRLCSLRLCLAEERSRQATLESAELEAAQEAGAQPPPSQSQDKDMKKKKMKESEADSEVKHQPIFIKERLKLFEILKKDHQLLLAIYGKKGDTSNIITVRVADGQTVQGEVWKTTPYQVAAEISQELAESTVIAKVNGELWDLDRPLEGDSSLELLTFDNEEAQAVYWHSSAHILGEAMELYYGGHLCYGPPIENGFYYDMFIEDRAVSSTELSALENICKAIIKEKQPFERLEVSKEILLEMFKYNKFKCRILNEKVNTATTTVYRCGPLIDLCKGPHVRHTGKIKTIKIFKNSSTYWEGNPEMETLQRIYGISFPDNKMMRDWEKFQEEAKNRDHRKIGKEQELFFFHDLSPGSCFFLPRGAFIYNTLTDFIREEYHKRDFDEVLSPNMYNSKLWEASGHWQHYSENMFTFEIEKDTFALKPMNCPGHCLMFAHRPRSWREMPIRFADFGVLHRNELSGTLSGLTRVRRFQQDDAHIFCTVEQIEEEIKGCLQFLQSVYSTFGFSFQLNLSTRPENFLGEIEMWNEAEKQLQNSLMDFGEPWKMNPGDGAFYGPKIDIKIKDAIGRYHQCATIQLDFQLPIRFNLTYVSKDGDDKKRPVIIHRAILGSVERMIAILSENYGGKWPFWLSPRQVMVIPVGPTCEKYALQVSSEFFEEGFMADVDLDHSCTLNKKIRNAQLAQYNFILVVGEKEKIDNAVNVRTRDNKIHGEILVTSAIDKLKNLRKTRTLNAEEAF
B1 was tested, and the binding was “binds”.
With B2 the binding was “binds”.
With B3 the binding was “binds”.

What follows are binders tested against T2, hThrRS-L-S459D with a C-terminal FLAG tag (human) (UniProt A2RTX5) in the same assay as above.
T2 sequence: T1 sequence with D449T, S459D
In the case of B1, the binding is reported as “binds”.
For B2, the binding was “binds”.
With B3 the binding was “binds”.

What follows are binders tested against T3, hThrRS-L-Δ161-FLAG, hThrRS-L with TLN161 deleted, C-terminal FLAG tag (human) (UniProt A2RTX5) in the same assay as above.
T3 sequence: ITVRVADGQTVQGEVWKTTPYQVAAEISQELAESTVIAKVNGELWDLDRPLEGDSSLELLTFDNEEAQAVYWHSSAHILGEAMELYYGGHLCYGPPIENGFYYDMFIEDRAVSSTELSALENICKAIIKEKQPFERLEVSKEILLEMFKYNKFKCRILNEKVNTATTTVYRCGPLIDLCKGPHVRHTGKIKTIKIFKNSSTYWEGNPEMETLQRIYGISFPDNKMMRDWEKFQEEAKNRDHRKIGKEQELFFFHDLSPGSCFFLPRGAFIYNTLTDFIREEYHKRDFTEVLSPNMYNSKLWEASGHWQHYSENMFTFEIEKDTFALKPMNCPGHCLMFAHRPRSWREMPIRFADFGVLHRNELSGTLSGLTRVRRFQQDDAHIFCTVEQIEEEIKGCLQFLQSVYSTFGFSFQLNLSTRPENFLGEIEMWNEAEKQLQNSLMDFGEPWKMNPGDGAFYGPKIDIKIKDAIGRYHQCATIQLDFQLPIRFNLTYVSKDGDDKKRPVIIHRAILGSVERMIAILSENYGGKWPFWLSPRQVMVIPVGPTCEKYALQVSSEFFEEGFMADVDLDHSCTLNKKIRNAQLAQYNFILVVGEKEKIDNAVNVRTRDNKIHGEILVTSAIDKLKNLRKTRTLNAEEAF
In the case of B1, the binding is reported as “no binding”.
With B2 the binding was “no binding”.
In the case of B3, the binding is reported as “binds”.
